Values joined by “and” are separate entries in the source; they are usually repeats but may differ in a detail not shown here. Equal entries are not always repeated. Some of the results follow. The main result of the screen is listed elsewhere. These columns were measured beside it and carry no call.
What was measured:
Test in all cases: Primary Screen for Target Class Profiling of Small Molecule Inhibitors of Methyltransferases
[1] = biological target: Glycine N-methyltransferase (Homo sapiens) (UniProt Q14749); details: purified enzyme, MTase-Glo SAH luminescence; measured here: GNMT inhibition; at 40 µM; stronger effect = lower value
How it was run: (§1)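 Each enzyme was assayed with SAM and its substrate. SAH formation detected by MTase-Glo luminescence; single-point 40 uM screen[…].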

[2] = biological target: Guanidinoacetate N-methyltransferase (Homo sapiens) (UniProt Q14353); details: purified enzyme, MTase-Glo SAH luminescence; measured here: GAMT inhibition; at 40 µM; stronger effect = lower value
How it was run: as §1

[3] = biological target: Histamine N-methyltransferase (Homo sapiens) (UniProt P50135); details: purified enzyme, MTase-Glo SAH luminescence; measured here: HNMT inhibition; at 40 µM; stronger effect = lower value
How it was run: as §1

[4] = biological target: Nicotinamide N-methyltransferase (Homo sapiens) (UniProt P40261); details: purified enzyme, MTase-Glo SAH luminescence; measured here: NNMT inhibition; at 40 µM; stronger effect = lower value
How it was run: as §1

[5] = biological target: Phenylethanolamine N-methyltransferase (Homo sapiens) (UniProt P11086); details: purified enzyme, MTase-Glo SAH luminescence; measured here: PNMT inhibition; at 40 µM; stronger effect = lower value
How it was run: as §1
On the % scale 0 is the no-effect control and ±100 the full control effect.

| Compound | activity change, negative = inhibition [1] | activity change, negative = inhibition [2] | activity change, negative = inhibition [3] | activity change, negative = inhibition [4] | activity change, negative = inhibition [5] |
| --- | --- | --- | --- | --- | --- |
| O=C(CCc1nnc2n(Cc3ccccc3)c(=O)c3ccccc3n12)NCCN1CCCC1 | -3.75% | 0% | -28.3% | 5.07% | 4.25% |
| C=CCn1c(=O)c2ccc(C(=O)NC(C)CC)cc2n2c(=O)n(CC(N)=O)nc12 (stereo not drawn) | 0.505% | -1.09% | -0.231% | -3.53% | -5.63% |
| C[C@H]1[C@H](C)CC[C@]2(C(=O)O[C@@H]3O[C@H](CO)[C@@H](O)[C@H](O)[C@H]3O)CC[C@]3(C(=O)O)C(=CCC4[C@@]5(C)CC[C@H](O[C@@H]6O[C@H](CO)[C@@H](O)[C@H](O)[C@H]6O)C(C)(C)C5CC[C@]43C)[C@H]12 (stereo partly drawn) | 0.269% | -1.22% | 7.46% | -15.1% | 5.26% |
| COc1cc2c(NC3CCN(CC4CCCCC4)CC3)nc(N3CCCN(C(C)C)CC3)nc2cc1OCCCN1CCCCC1 | -0.782% and 13.1% | 13.2% | -78% and -39.4% | -18.5% and 4.11% | -1.05% and 5.07% |
| O=C(O)c1cc2cc(F)ccc2[nH]1 | -11.8% | -1.93% | -2.49% | -7.72% | -0.344% |
| CC(C)CCNC(=O)C1c2c(n(C)c3ccccc23)SCC(=O)N1c1cccc(F)c1 (stereo not drawn) | 10.7% | 0% | 8.91% | 4.13% | 0.051% |
| COc1ccc(CNC(=O)CNC(=O)C2(C)Cn3c(cc4ccccc43)C(=O)N2C)cc1 (stereo not drawn) | -3.91% | 4.47% | -2.18% | 2.76% | -1.2% |
| CCCN1C(=O)c2c(C(=O)NCc3ccc(Cl)cc3)ncn2CC1(C)C(=O)NCCC(C)C (stereo not drawn) | 1.01% | 0.197% | 2.87% | 0.756% | 6.57% |
| CCCN1C(=O)c2c(C(=O)NCc3ccccn3)ncn2CC1(C)C(=O)NCc1ccc(C)cc1 (stereo not drawn) | -1.29% | 0% | 5.13% | 3.16% | 0.977% |
| COC(=O)[C@H](O)[C@H]1C(C)(C)[C@H](OC(C)=O)[C@@]2(O)C(=O)[C@]1(C)C1CC[C@]3(C)C(CC(=O)O[C@H]3c3ccoc3)[C@]13O[C@@H]32 (stereo partly drawn) | 2.26% | -1.98% | 5.22% | -11.2% | -1.2% |
| COc1cccc(Nc2ncc3c(n2)C(C)(C(=O)NC2CCOCC2)CC3)c1 (stereo not drawn) | -8.45% | -1.9% | -3.29% | -7.3% | 7.18% |
| O=C(Cc1ccccc1Cl)NC1CCN(c2cc(-c3cccs3)[nH]n2)C1 (stereo not drawn) | -10.2% | -9.33% | -5.72% | -18.9% | -17.4% |
| CC1(C)CCC2(C(=O)O)C(O)CC3(C)C(=CCC4C5(C)CCC(OC6OC(CO)C(O)C(O)C6OC6OC(CO)C(O)C(O)C6OC6OCC(O)(CO)C6O)C(C)(C)C5CCC43C)C2C1 (stereo not drawn) | 0% | 12.6% | 3.54% | -1.78% | 10.6% |
| Cc1ccc(C)c(CSc2nnc3n(CCCOC(C)C)c(=O)c4ccccc4n23)c1 | 1.29% | 0% | 4.21% | 2.23% | 6.5% |
| O=C(c1ccc(OCCCc2cnc[nH]2)cc1)C1CC1 | 2.69% | 10.5% | -1.79% | -18.7% | -0.669% |
| CCc1cc2c(cc3n2CC(C)(C(=O)NC2CCCCCC2)N(CCC(C)C)C3=O)s1 (stereo not drawn) | 3.93% | 0% | 9.79% | 8.88% | 2.08% |
| COc1ccccc1CNC(=O)CCc1nnc2n(CC(C)C)c(=O)c3ccccc3n12 | -9.22% | -0.127% | -0.433% | -4.08% | -6.96% |

| Compound | activity change, negative = inhibition [1] | activity change, negative = inhibition [2] | activity change, negative = inhibition [3] | activity change, negative = inhibition [4] | activity change, negative = inhibition [5] |
| --- | --- | --- | --- | --- | --- |
| CCn1c(=O)[nH]c2ccc3c(c21)C(=O)c1ccccc1C3=O | -4.08% | -8.5% | -10.2% | -8.26% | -16.8% |
| CCCn1c(=O)c2cc(F)ccc2n2c(SCC(=O)NCc3ccc(C)cc3)nnc12 | -0.637% | 1.81% | 5.28% | -1.45% | 4.39% |
| Cc1nnc([C@@H]2CC(F)(F)CN2C(=O)c2nccc3ccccc23)o1 | -6.55% | -15.7% | -1.65% | -10.4% | -5.59% |
| Cc1ccccc1N1Cc2c(NCc3ccc(F)cc3)ncnc2N(C)CC1=O | -3.19% | -2.14% | -1.8% | -11% | -2.9% |
| Cn1c(=O)oc2cc(S(=O)(=O)N3CCCC(C(=O)N4CCC(Cc5nncn5-c5ccccc5)CC4)C3)ccc21 (stereo not drawn) | -1.03% | 0.008% | 5.38% | -10.8% | 3.22% |
| O=C(NCCO)c1cc(C(=O)NCCO)cc(C(=O)NCCO)c1 | – | 1.22% | – | -5.89% | 4.81% |
| CC1=CC(=O)C[C@H]2[C@@H]1CC[C@@H](C)[C@]21CO[C@H](c2ccoc2)C1=O | 0% | -2.95% | 0.477% | -14.8% | 1.8% |
| CCc1cc2c(cc3n2CC(C)(C(=O)NC2CCCCC2)N(Cc2ccccc2C)C3=O)s1 (stereo not drawn) | -1.64% | 3.7% | -2.33% | 9.8% | -0.89% |
| CCN1CCCC1CNC(=O)c1cc(S(N)(=O)=O)ccc1OC (stereo not drawn) | 4.22% | 12.3% | 7.68% | -2.54% | 4.22% |
| C=CC(C)(O)CC/C=C(\C)C(=O)OC1C(O)C(CO)OC(OC(=O)C23CCC(C)(C)CC2C2=CCC4C5(C)CCC(OC6OC(COC7OCC(OC(C)=O)C(O)C7OC7OC(COC(C)=O)C(O)C(O)C7O)C(O)C(O)C6O)C(C)(C)C5CCC4(C)C2(C)C(O)C3O)C1OC1OCC(OC2OCC(O)C(OC3OCC(O)C(O)C3O)C2O)C(O)C1O (stereo not drawn) | -2.49% | 5.57% | 0.255% | -5.66% | 5.43% |
| C=C1C2(C)CC3C4(C)OC(C5OC56C4=CC(=O)OC6(C)C)C3(C)C13C(=O)OC(C)C3(O)C2=O (stereo not drawn) | 3.25% | 7.61% | 10.5% | -8.1% | 4.26% |
| Cc1ccc(-c2n[nH]n3c2nc(=O)c2ccc(C(=O)NCCc4ccccc4)cc23)cc1 | -2.39% | 1.06% | 5.64% | 5.42% | 1.29% |
| COc1ccc2cc3n(c2c1)CC(C)(C(=O)NC1CCCC1)N(Cc1ccc(C)cc1)C3=O (stereo not drawn) | -4.28% | 4.25% | -3.94% | -9.91% | -4.67% |
| CN(C)c1ccc(CNC(=O)CCCn2ccc3cc(S(=O)(=O)N4CCCC4)ccc32)cc1 | 11% | 2.28% | 7.43% | 11.6% | 6.19% |
| N#Cc1cccc(CN2CCCC(CNS(=O)(=O)Cc3ccccc3)C2)c1 (stereo not drawn) | -6.08% | -1.43% | -3.32% | -3.38% | -9.08% |
| COC(=O)c1ccc2c(=O)[nH]c3c(C(=O)NCCC(C)C)sc(=S)n3c2c1 | -16.4% | 0% | 10.6% | -17.9% | -6.03% |
| CC1CC(C)CN(C(=O)Cn2c(=O)oc3cc(S(=O)(=O)NC4CCCC4)ccc32)C1 (stereo not drawn) | -4.12% | 1.74% | -3.56% | 4.36% | -5.25% |

Reference: PubChem BioAssay AID1745853 (National Center for Advancing Translational Sciences (NCATS), 2022)
